Data on 85 molecules can be found in article PMC4336329 (PLoS ONE, 2015).

The structures appear in SMILES notation. About 14,000 (4.5%) of roughly 310,000 compounds showed an effect of 50% or more. The effect is printed as a negative number. The list shows a part of the results.
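Further: peak tail current of the secondary pulse compared with the same well before compound.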

In the assay the target is human ether-à-go-go-related gene (hERG) potassium channel (human, UniProt Q12809). Briefly: primary screen, population patch clamp on CHO cells stably expressing hERG.
Chain of human ether-à-go-go-related gene (hERG) potassium channel (Q12809 whole entry, looked up): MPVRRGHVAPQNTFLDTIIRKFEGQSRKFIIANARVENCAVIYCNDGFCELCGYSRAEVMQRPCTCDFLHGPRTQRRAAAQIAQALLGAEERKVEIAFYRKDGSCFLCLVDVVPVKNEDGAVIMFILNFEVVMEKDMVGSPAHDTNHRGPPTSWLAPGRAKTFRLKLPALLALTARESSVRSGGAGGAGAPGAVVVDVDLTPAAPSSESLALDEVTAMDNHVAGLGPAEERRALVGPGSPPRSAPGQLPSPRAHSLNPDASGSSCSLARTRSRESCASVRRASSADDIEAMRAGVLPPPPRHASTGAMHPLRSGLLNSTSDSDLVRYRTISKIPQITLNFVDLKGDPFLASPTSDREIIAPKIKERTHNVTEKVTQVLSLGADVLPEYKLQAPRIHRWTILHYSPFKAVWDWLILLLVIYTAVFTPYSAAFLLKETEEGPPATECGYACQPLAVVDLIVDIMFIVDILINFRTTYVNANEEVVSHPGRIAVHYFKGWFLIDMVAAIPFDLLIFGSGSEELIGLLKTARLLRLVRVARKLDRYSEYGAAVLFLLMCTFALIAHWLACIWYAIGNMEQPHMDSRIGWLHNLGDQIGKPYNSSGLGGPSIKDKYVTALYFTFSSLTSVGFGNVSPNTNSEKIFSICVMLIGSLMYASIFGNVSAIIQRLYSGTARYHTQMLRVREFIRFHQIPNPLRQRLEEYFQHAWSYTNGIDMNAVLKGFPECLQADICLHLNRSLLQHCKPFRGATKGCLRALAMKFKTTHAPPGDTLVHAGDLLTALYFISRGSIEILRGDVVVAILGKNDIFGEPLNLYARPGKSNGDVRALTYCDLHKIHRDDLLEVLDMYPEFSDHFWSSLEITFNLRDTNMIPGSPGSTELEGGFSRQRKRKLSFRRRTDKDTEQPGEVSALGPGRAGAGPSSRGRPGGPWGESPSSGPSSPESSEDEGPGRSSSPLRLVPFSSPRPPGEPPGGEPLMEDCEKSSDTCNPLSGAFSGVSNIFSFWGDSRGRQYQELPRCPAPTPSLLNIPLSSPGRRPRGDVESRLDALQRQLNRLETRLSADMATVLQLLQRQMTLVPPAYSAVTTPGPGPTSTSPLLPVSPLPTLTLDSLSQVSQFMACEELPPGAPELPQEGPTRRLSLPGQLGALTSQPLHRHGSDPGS
As for `O=C(O)C(S)C(S)C(=O)O` (stereo not shown), the “hERG current change (%, negative = inhibition) at 10uM” value was 14.5%.
For the molecule `Cc1ccc2nc(Cl)c(C3CC(c4cccs4)=NN3C(=O)CCCC(=O)O)cc2c1` (stereo not shown), the “hERG current change (%, negative = inhibition) at 10uM” value worked out at 14.2%.
With `COCCN=c1scc(C)n1/N=C/C1CC2C=CC1C2` (stereo not shown) the figure was -55%; with `NC1=NC(=O)C(CC(=O)Nc2ccc3c(c2)OCO3)S1` (stereo not shown), 1.22%; with `O=C(CCCn1cnc([N+](=O)[O-])n1)Nc1ccc(F)c(Cl)c1`, -9.52%.
The same measure for `CC(=O)N1CCN(c2nc3ccc(Br)cc3s2)CC1`: -49.4%.
As for `CCOC(=O)CNc1nc(C(C)(C)C)nc2c1nnn2Cc1ccccc1Cl`, the “hERG current change (%, negative = inhibition) at 10uM” value is 9.44%.
With `Cc1cnc(NC(=O)CC2CCCC2)s1` the figure was 21.5%; with `COCCCNC(=O)/C(C#N)=C/c1c(N2CCN(c3ccccc3)CC2)nc2ccccn2c1=O`, -20.3%; with `CCCc1cc(CNC(=O)C2CCC(=O)N(Cc3ccccc3OC)C2)on1` (stereo not shown), 10.1%.
With `COC(=O)c1c(C)nc2c(c(SC)nn2-c2ccccc2)c1N` the figure was 6.32%.
With `N#C/C(=C\c1ccc(O)c(Br)c1)C(=O)NCc1ccccc1` the figure was -0.941%; with `CC(C)(C)OC(=O)Nc1ccc([C@H](NC(=O)OC(C)(C)C)C(=O)OC(C)(C)C)cc1`, 6.47%.
Take `CC1CCCCC1NC(=O)c1cccc(N2C(=O)C3C4C=CC(C4)C3C2=O)c1` (stereo not shown): the “hERG current change (%, negative = inhibition) at 10uM” value came out at 8.28%.
The same measure for `Cc1cccnc1NC(=O)C1c2ccccc2Oc2ccccc21`: -5.44%.
With `Cc1cc(S(=O)(=O)N2c3ccc(F)cc3CCC2C)ccc1-n1cnnn1` (stereo not shown) the figure was 6.53%; with `O=C(O)c1ccccc1SCCS(=O)(=O)c1ccc(Cl)cc1Cl`, 7.72%; with `CC(C)N1CCC(N2CCN(Cc3nc4ccccc4s3)CC2CCO)CC1` (stereo not shown), -33.4%.
The same measure for `Fc1ccc(NC(=S)Nc2ccc(F)c(Cl)c2)cc1Cl`: 5.59%; for `O=C(c1ccc(CS(=O)(=O)c2ccc(Br)cc2)o1)N1CCN(c2ccc(F)cc2)CC1`: 6.91%; for `Cc1ccc(COc2ccc(/C=N/O)cc2)cc1`: 16.6%.
For the molecule `CCOC(=O)c1c(C)[nH]c(NC(=O)Nc2c(C)n(C)n(-c3ccccc3)c2=O)c1C`, the “hERG current change (%, negative = inhibition) at 10uM” value is 14.8%.
`OCCNC(=S)c1ccccc1`: the “hERG current change (%, negative = inhibition) at 10uM” value came to 18.3%.
The same measure for `COC(=O)CCSc1cc([N+](=O)[O-])cc2c1c(C1OCCS1)nn2-c1ccccc1` (stereo not shown): 3.61%; for `CCOC(=O)C1C(=O)C=C(/C=C/c2ccccc2)CC1c1ccc(Cl)cc1` (stereo not shown): -0.716%; for `CC(C)OC(=O)c1ccc(COc2ccc3ccc(=O)oc3c2)o1`: -35.7%.
Regarding `O=C(CSc1ccccn1)Nc1cccc2ccccc12`, the “hERG current change (%, negative = inhibition) at 10uM” value was determined as 8.26%.
The same measure for `Cc1cccc(C(=O)NC(C(=O)Nc2cccc(S(=O)(=O)N3CCCC3)c2)C(C)C)c1` (stereo not shown): 10.1%.
The same measure for `Cc1ccc2nc(-c3ccc4c(c3)OCCO4)cn2c1`: -16%; for `N#Cc1ccccc1CSc1nc(N)cc(N)n1`: 10.5%.
With `CCNS(=O)(=O)c1c(C)cc(N2CCCC2=O)cc1C` the figure was 6.32%; with `Cc1nc([N+](=O)[O-])c(C(=O)OCc2ccc(C#N)cc2)n1C`, -33.8%; with `O=C(N/N=C/c1ccc2c(c1)OCO2)c1cc(-c2ccccc2Cl)nc2ccccc12`, 19.9%.
In the case of `Cc1nc2cc(-c3ccc(Cl)cc3)nn2c(C)c1CCC(=O)NC(C)c1ccc2c(c1)OCCO2` (stereo not shown), the “hERG current change (%, negative = inhibition) at 10uM” value is recorded as -23.8%.
With `COc1ccc(/C=C2/SC(=S)N(CCCC(=O)N3CCN(C)CC3)C2=O)cc1` the figure was 2.98%; with `Cc1ccc(C)c(N2CCN(S(=O)(=O)c3ccc4c(c3)CCN4C(=O)CCC(=O)O)CC2)c1`, 13.9%; with `CCN(C(=O)Cn1cnc2c(nc3n2CCCCC3)c1=O)c1cccc(Cl)c1`, -25.4%.
With `O=S(=O)(N/N=C/c1ccc2c(c1)OCCO2)c1ccccc1` the figure was -8.67%; with `Cc1cc(C)cc(OCC(=O)Nc2cccc(-c3nnc(-c4ccco4)o3)c2)c1`, -12.8%; with `CCS(=O)(=O)Nc1ccc(C2=NN(S(=O)(=O)c3ccc(F)cc3)C(c3ccco3)C2)cc1` (stereo not shown), -38.8%.
With `CCOc1ccc(NC(=O)C2CC(=O)N(CCc3ccc(OC)c(OC)c3)C2)cc1OCC` (stereo not shown), the “hERG current change (%, negative = inhibition) at 10uM” value was 11.7%.
The same measure for `O=C(O)/C=C/C(=O)Nc1ccccc1-c1ccccc1NC(=O)/C=C/C(=O)O`: 17.9%.
The same measure for `O=C(CCc1ccccc1)Nc1ccc2ccccc2n1`: 14%; for `Cc1ccc(OCC(=O)N(C)CC(=O)Nc2cccc(F)c2)cc1`: 5.19%; for `Cc1ccc(C(=O)Nc2ccc(C(=O)O)cc2NC(=O)c2ccc(C)cc2)cc1`: 13.3%.
With `Cc1ccc(Cn2nnc(C(=O)Nc3cc(C)ccc3C)c2N)cc1` the figure was 1.95%.
As to `CCC(C)Nc1nc2c(c(=O)[nH]c(=O)n2C)n1CCCc1ccccc1` (stereo not shown), the “hERG current change (%, negative = inhibition) at 10uM” value was -2.93%.
Take `C=CCn1c(O)c(N=NC(=O)OCC)c2ccccc21`: the “hERG current change (%, negative = inhibition) at 10uM” value is on record as -13.6%.
The same measure for `Cc1ccccc1C(=O)Nc1ccc2c(c1)nc(CCNC(=O)c1ccco1)n2C`: -18%; for `Cc1cc(CN(C)C(=O)c2ccc(OC3CCN(S(=O)(=O)N(C)C)CC3)cc2)n[nH]1`: 19.3%.
The same measure for `O=C(NNc1nc2ccccc2s1)Nc1ccc(Cl)c(Cl)c1`: 32.6%.
The same measure for `Cc1ccc(C(=O)NC(C)C2CC3CCC2C3)c(C)c1` (stereo not shown): -13.2%.
Consider `O=C(COc1ccccc1)NC(NC(=S)Nc1ccccc1C(=O)O)C(Cl)(Cl)Cl` (stereo not shown), for which the “hERG current change (%, negative = inhibition) at 10uM” value stood at 18.7%.
With `CCOc1ccc(NC(=O)CCc2nnc3ccc(N4CCN(C)CC4)nn23)cc1` the figure was 17.3%; with `COC(=O)COc1ccc(S(=O)(=O)N2CCOCC2)cc1C`, -1.37%; with `CCn1c2ccccc2c2cc(/C=N/NC(=O)c3ccc(O)cc3)ccc21`, -5.44%.
For `Cc1ccccc1C(=O)NC(CC(C)C)C(=O)NN1C(=O)c2ccccc2C1=O` (stereo not shown), the “hERG current change (%, negative = inhibition) at 10uM” value worked out at 25.9%.
Take `CC1(c2ccc([N+](=O)[O-])cc2)NC(=O)N(CC(=O)c2ccc3c(c2)OCO3)C1=O` (stereo not shown): the “hERG current change (%, negative = inhibition) at 10uM” value is -1.19%.
The same measure for `COc1ccc(N(C(=O)c2snc(C(N)=O)c2N)C(C(=O)NC2CCCCC2)c2ccc(F)cc2)c(OC)c1` (stereo not shown): 6.24%; for `Cn1c(=O)oc2cc(S(=O)(=O)NCc3ccc(F)cc3)ccc21`: -35.2%; for `CCNC(=O)CC1C(=O)N(c2ccc(OC)cc2)C(=O)N1CCOC` (stereo not shown): 16.8%.
With `CC(=NCc1cccnc1)c1c(O)n(-c2ccc(C)cc2)c(=O)[nH]c1=O` the figure was -8.92%; with `O=C(COC(=O)[C@H](Cc1ccccc1)NC(=O)c1cccs1)Nc1ccccc1C(F)(F)F`, 4.47%; with `O=C(NN=C1CCN(Cc2ccccc2)CC1)C(O)c1ccccc1` (stereo not shown), 7.39%.
With `Cc1ccc(CNC(=O)CN2CCCC(C)C2)cc1` (stereo not shown) the figure was -29.7%; with `Cn1c(SCc2nc(-c3ccccc3)no2)nnc1-c1cccs1`, -2.11%; with `CCCCOP(=O)(OCCCC)C(O)c1ccc(F)cc1` (stereo not shown), -5.14%.
`Cc1ccc2occ(C(c3nnnn3C3CCCC3)N3CCN(C(=O)c4ccco4)CC3)c(=O)c2c1` (stereo not shown): the “hERG current change (%, negative = inhibition) at 10uM” value was -45.7%.
With `COc1ccc(CCN2C(=O)C3C4CC(C5C(C(=O)N/N=C\c6ccc(Cl)cc6)=NOC45)C3C2=O)cc1OC` (stereo not shown) the figure was -67.7%.
The same measure for `O=C(NCC1CCN(c2ccc(S(=O)(=O)N3CCOCC3)cc2)CC1)c1cccc(Cl)c1`: -12.4%; for `COc1ccc(-c2nc(CS(=O)CC(=O)NC3CCCc4ccccc43)c(C)o2)cc1OC` (stereo not shown): -15.2%.
In the case of `CC(C)OC(=O)c1cn(-c2ccccc2)nc1-c1ccco1`, the “hERG current change (%, negative = inhibition) at 10uM” value is recorded as 3.82%.
The same measure for `Cc1cc2oc(C(=O)N(Cc3ccccc3)C3CCS(=O)(=O)C3)c(C)c2cc1C` (stereo not shown): 11.4%.
The same measure for `COCC1CCCN(Cc2nc(Cc3ccccc3)no2)C1` (stereo not shown): 11.6%.
The same measure for `CC(C)(C)C(=O)OCCn1c(=O)c2cc3c(=O)n(CCOC(=O)C(C)(C)C)c(=O)c3cc2c1=O`: 25.5%.
With `Cc1[nH]c(C)c(S(=O)(=O)N(Cc2ccccc2)C(C)C)c1C(=O)N1CCCC1`, the “hERG current change (%, negative = inhibition) at 10uM” value worked out at 6.25%.
With `O=C(CCNc1ccc(Br)cc1)c1cccc([N+](=O)[O-])c1` the figure was -4.24%.
The same measure for `Cc1cccc(-n2c(Cc3cc(=O)[nH]c(=O)[nH]3)nnc2SCC(=O)N2CCc3ccccc32)c1`: 0.321%; for `Cn1ccnc1Sc1nc2ccccc2nc1NS(=O)(=O)c1ccccc1`: 9.78%; for `c1ccc(C(Cc2nc(-c3ccncc3)no2)c2ccccc2)cc1`: 17.1%.
As for `Cc1[nH]c(=O)c(C#N)c(C)c1CCC(=O)NCc1cccc(C(F)(F)F)c1`, the “hERG current change (%, negative = inhibition) at 10uM” value is on record as 17.6%.
The same measure for `O=C(CSc1nccc(=O)[nH]1)c1ccccc1Br`: -3.44%; for `Cc1cc(-c2ccc(C)c(S(=O)(=O)NCC3CCN(Cc4ccc(F)cc4)CC3)c2)on1`: -66.2%; for `CCOc1ccc(S(=O)(=O)NNC(=S)Nc2ccc(Br)cc2)cc1`: 5.35%.
The same measure for `Cc1noc(C)c1C(=O)NCc1ccco1`: 0.0994%.
